About 200 (0.47%) of roughly 43,000 compounds were called active. Roughly 12% stayed inconclusive and do not appear here. The call rests on the fitted dose curve; in most records, active means well fitted cell-killing curve with a large enough effect; inconclusive means small, poorly fitted or top-dose-only effect, or effect the other way; inactive means flat fitted curve, though single readings scatter. The list shows a part of the results.
On the % scale 0 is the no-effect control and ±100 the full control effect.

This experiment is described as follows: Cell viability qHTS assay in S16 Pmp22-F2sN cells. Further: nearly all actives have a fitted effect of over 65% in size. Conditions: S16 Pmp22-F2sN Schwann cells (luciferase reporters placed in the Pmp22 gene) viability, CellTiter-Glo, 24 h; series mostly up to 57.5 µM; activity change, negative = cytotoxicity: at the top concentration. In a few lines:
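Seed 500-1,000 S16 Pmp22-F2sN cells per well in phenol-red-free DMEM with 10% heat-inactivated FBS; pin-add 23 nL compound; incubate 24 h at 37C; add CellTiter-Glo, wait 15 min protected from light; read luminescence.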
Background: qHTS replaces the single test concentration by a dilution series.
Regarding `CC1CCN(S(=O)(=O)c2cc(C(=O)NCc3ccc(F)cc3)n(C)c2)CC1`, the “activity change, negative = cytotoxicity” value is inactive: 10.2%.

In the case of `CCC1CN(C(=O)N2CCC(C(=O)NCCOC)CC2)c2ccccc2O1` (stereo not drawn), the “activity change, negative = cytotoxicity” value is inactive: -5%.

`Cc1ccc(NC(=O)CCS(=O)(=O)c2ccc3nc(C)sc3c2)cc1`: the “activity change, negative = cytotoxicity” value is inactive: 5.99%.

Take `CCOc1ccc(CCNS(=O)(=O)c2c(C)nc3sc(C)cn3c2=O)cc1OCC`: the “activity change, negative = cytotoxicity” value was inactive: 16.6%.

On to `CC(=O)c1ccc(NC(=O)CCc2c(C)nn(-c3ccc4nncn4n3)c2C)cc1`, for which the “activity change, negative = cytotoxicity” value was inactive: 8.93%.

For `CSc1ccc(CCNC(=O)c2cc3n(n2)CCCN(Cc2ccc(C)cc2)C3=O)cc1`, the “activity change, negative = cytotoxicity” value was inactive: -1.39%.

As for `CCOc1ccccc1N1CC(c2nc3ccccc3n2CCCOc2ccccc2OC)CC1=O` (stereo not drawn), the “activity change, negative = cytotoxicity” value is inactive: 3.29%.

As for `COc1cccc(CNC(=O)Cn2ccc3cc(S(=O)(=O)N4CCCC4)ccc32)c1`, the “activity change, negative = cytotoxicity” value is inactive: 20.5%.

For the molecule `O=C(Nc1sc2c(c1C(=O)NCc1ccccc1)CCCC2)c1cc(=O)c2cc(Cl)ccc2o1`, the “activity change, negative = cytotoxicity” value was inactive: 16.3%.

Regarding `CCc1ccccc1N1CC(c2nc3ccccc3n2Cc2cccc(C)c2)CC1=O` (stereo not drawn), the “activity change, negative = cytotoxicity” value is inactive: -9.55%.

With `N#Cc1ccccc1Cn1nnc2c(=O)[nH]c(C3CCCN(S(=O)(=O)c4ccc(F)cc4)C3)nc21` (stereo not drawn), the “activity change, negative = cytotoxicity” value was inactive: 0.286%.

For the molecule `O=C(Nc1cccnc1Cl)c1cc(-c2ccc(Cl)cc2)on1`, the “activity change, negative = cytotoxicity” value is inactive: 11.9%.

Turning to `O=C(NCc1ccccc1)C1CCC(CNS(=O)(=O)c2ccc(Br)s2)CC1` (stereo not drawn), the “activity change, negative = cytotoxicity” value is inactive: 17.1%.

For the molecule `CC1CCc2nn(CC(=O)Nc3cccc(C(F)(F)F)c3)c(=O)cc2C1` (stereo not drawn), the “activity change, negative = cytotoxicity” value was inactive: 4.42%.

Regarding `COc1cc(NC(=O)Cn2c(=O)n(C(C)C)c(=O)c3oc4ccccc4c32)cc(OC)c1`, the “activity change, negative = cytotoxicity” value is inactive: 21.5%.

For `CCOc1ccc(N2CC(c3nc4ccccc4n3CC(C)C)CC2=O)cc1` (stereo not drawn), the “activity change, negative = cytotoxicity” value is inactive: -2.46%.

Regarding `COc1cccc(CNC(=O)c2c(O)nc3ccccn3c2=O)c1`, the “activity change, negative = cytotoxicity” value was inactive: -2.15%.

`COc1cc(NC(=O)CCNS(=O)(=O)c2ccc3c(c2)CCN3C(=O)C2CC2)cc(OC)c1`: the “activity change, negative = cytotoxicity” value was inactive: 0.615%.

Consider `COCC(=O)N1CCc2cc(OC)c(OC)cc2C1COc1ccc2c(C)cc(=O)oc2c1` (stereo not drawn), for which the “activity change, negative = cytotoxicity” value was inactive: 0.82%.

For the molecule `COc1cc(-c2noc(-c3ccc(NCCc4ccccc4)c([N+](=O)[O-])c3)n2)cc(OC)c1OC`, the “activity change, negative = cytotoxicity” value is inactive: 10.1%.

Regarding `O=c1oc2ccc(Br)cc2cc1-c1nc(-c2ccccc2)no1`, the “activity change, negative = cytotoxicity” value is inactive: -3.38%.

`CCS(=O)(=O)N1CC(=O)N(c2ccc(C)c(C)c2)C(C)(C(=O)NC2CCCCC2)C1` (stereo not drawn): the “activity change, negative = cytotoxicity” value was inactive: 1.34%.

Regarding `CCC(C)NC(=O)C1CCC(CNS(=O)(=O)c2cccc3nsnc23)CC1` (stereo not drawn), the “activity change, negative = cytotoxicity” value was inactive: -3.53%.

For `COc1ccc(C(=O)c2oc3ccccc3c2NC(=O)COc2c(C)cc(C)cc2C)cc1`, the “activity change, negative = cytotoxicity” value was inactive: -0.409%.

As for `Cc1cccc(NC(=O)CSc2nc3c(oc4ccccc43)c(=O)n2C(C)C)c1`, the “activity change, negative = cytotoxicity” value is inactive: -15.1%.

As for `COc1ccc(N2CCN(C(c3ccccc3)c3nnc(-c4ccccc4Cl)o3)CC2)cc1` (stereo not drawn), the “activity change, negative = cytotoxicity” value is inactive: 1.81%.

In the case of `CC1=C(C(=O)NCCc2ccc(Cl)cc2)C2(CCCCC2)OC1=O`, the “activity change, negative = cytotoxicity” value is inactive: -3.53%.

Take `COc1cccc(CNC(=O)Cn2ncc3c4ccccc4n(C)c3c2=O)c1`: the “activity change, negative = cytotoxicity” value was inactive: 9.69%.

On to `COCCNC(=O)CCCn1c(SCC(=O)Nc2cccc(C)c2)nc2c(sc3ccccc32)c1=O`, for which the “activity change, negative = cytotoxicity” value is inactive: -3.16%.

Take `COc1cccc(C(=O)Nc2nnc(S(=O)(=O)N3CCOCC3)s2)c1`: the “activity change, negative = cytotoxicity” value was inactive: -9.67%.

For the molecule `CCCCOc1cccc(C(=O)Nc2cccc3ccc(C)nc23)c1`, the “activity change, negative = cytotoxicity” value is inactive: 9.94%.

On to `Cc1ccc(CS(=O)(=O)Cc2ccc(C(=O)NCCc3ccc(Cl)cc3)o2)cc1`, for which the “activity change, negative = cytotoxicity” value is inactive: -0.583%.

For the molecule `CCOC(=O)c1c(C)[nH]c(C)c1S(=O)(=O)N1CCC(C(=O)Nc2ccccn2)CC1`, the “activity change, negative = cytotoxicity” value is inactive: 19.9%.

In the case of `Cc1ccc2oc(=O)n(CCNC(=O)Nc3ccccc3Cl)c2c1`, the “activity change, negative = cytotoxicity” value was inactive: -11.7%.

`COc1ccc(C2CC(=O)Nc3c2c(=O)nc2c(C)cccn32)cc1` (stereo not drawn): the “activity change, negative = cytotoxicity” value was inactive: 15.3%.

Turning to `Cc1cc(C)c2c(=O)cc(C(=O)Nc3ccccc3Cl)oc2c1`, the “activity change, negative = cytotoxicity” value was inactive: 9.86%.

For the molecule `Cc1ccc2c(CC(=O)Nc3cc(C(F)(F)F)ccc3Cl)coc2c1C`, the “activity change, negative = cytotoxicity” value was inactive: -4.76%.

`CCC12CN3CC(CC)(CN(C1)C3c1ccc(OCc3ccccc3)cc1)C2=O` (stereo not drawn): the “activity change, negative = cytotoxicity” value is inactive: 3.7%.

As for `O=C(Cn1nnc2sc3c(c2c1=O)CCCC3)Nc1ccc(F)c(Cl)c1`, the “activity change, negative = cytotoxicity” value is inactive: -4.24%.

As for `CCCS(=O)(=O)NCCc1csc2nc(-c3ccc(OC)cc3)nn12`, the “activity change, negative = cytotoxicity” value is inactive: -22.6%.

For `COc1ccc(C2NC(=O)NC(C)=C2C(=O)Nc2cc(C)cc(C)c2)c(OC)c1` (stereo not drawn), the “activity change, negative = cytotoxicity” value was inactive: -5.44%.

`Cc1ccccc1CNC(=O)CCCn1nc(C)c2sc3ccccc3c2c1=O`: the “activity change, negative = cytotoxicity” value is inactive: 9.2%.

As for `CCc1c(C)nc2nncn2c1Nc1ccc(C)c(F)c1`, the “activity change, negative = cytotoxicity” value is inactive: -11.3%.

Take `COc1ccccc1N(CC(=O)NCCSCc1ccc(Cl)cc1)S(C)(=O)=O`: the “activity change, negative = cytotoxicity” value is inactive: 0.264%.

As to `CN(Cc1ccccc1)c1ncnc2c1nc1n2CCCC1`, the “activity change, negative = cytotoxicity” value is inactive: 2.91%.

Consider `COc1ccccc1NC(=O)N(Cc1ccco1)C1CCN(C(C)=O)CC1`, for which the “activity change, negative = cytotoxicity” value is inactive: 9.36%.

Regarding `CCOc1cc(C#N)c(NC(=O)c2ccc(OC)c(S(=O)(=O)N3CCCC3)c2)cc1OCC`, the “activity change, negative = cytotoxicity” value was inactive: 15.1%.

As to `O=S(=O)(c1ccccc1)c1nc(-c2ccc(F)cc2)oc1N1CCOCC1`, the “activity change, negative = cytotoxicity” value is inactive: 5.1%.

For `Cc1nc2cc(-c3cccc(F)c3)nn2c(C)c1CCC(=O)N1CCN(c2ccc(F)cc2)CC1`, the “activity change, negative = cytotoxicity” value was inactive: 6.48%.

As to `Cc1ccc(NC(=O)c2ncn(-c3ccccc3)n2)c(Cl)c1`, the “activity change, negative = cytotoxicity” value is inactive: 9.88%.

`Cc1cccc(-c2noc(CN(C(=O)c3ccc(C)c(C)c3)C(C)C)n2)c1`: the “activity change, negative = cytotoxicity” value was inactive: -3.83%.

As for `COc1ccc(C)cc1N(C)C(=O)c1sc2nc3n(c(=O)c2c1C)CCCCC3`, the “activity change, negative = cytotoxicity” value is inactive: 6.34%.

Take `Cc1ccc(NC(=O)c2ccc3nc(Cc4ccccc4)oc3c2)cc1F`: the “activity change, negative = cytotoxicity” value was inactive: 5.45%.

`CCN(CC)c1ccc2cc(-c3nnc(-c4cccc(Cl)c4)o3)c(=O)oc2c1`: the “activity change, negative = cytotoxicity” value is inactive: -19.3%.

`CCCCN(C)CCNC(=O)Cn1ncc2c3ccccc3n(CCC)c2c1=O`: the “activity change, negative = cytotoxicity” value is inactive: -12.5%.

As for `COc1cccc(NC(=O)CSc2nc(-c3ccccc3)nc3c2Cc2cc(Cl)ccc2O3)c1`, the “activity change, negative = cytotoxicity” value was inactive: 7.04%.

As for `CCCCCn1c(=O)[nH]c2cc(C(=O)NCc3ccc(C)cc3)ccc2c1=O`, the “activity change, negative = cytotoxicity” value was inactive: 0.221%.

Take `CCOc1ccc(CCNC(=O)C2=C(C)C(=O)OC23CCC(C)CC3)cc1OCC` (stereo not drawn): the “activity change, negative = cytotoxicity” value was inactive: 2.58%.

As to `Cc1cccc(Cn2c(CNS(=O)(=O)c3ccc(Cl)s3)nc3cccnc32)c1`, the “activity change, negative = cytotoxicity” value is inactive: -22.2%.

For the molecule `CCOc1ccc(-c2cc3c(=O)n(CC(=O)Nc4c(C)cccc4C)ccn3n2)cc1`, the “activity change, negative = cytotoxicity” value is inactive: 3.04%.

Turning to `Cc1ccc2[nH]c(CSc3nnc(NC(=O)COc4ccccc4F)s3)cc(=O)c2c1`, the “activity change, negative = cytotoxicity” value was inactive: 10.2%.

Regarding `Cn1c(=O)oc2cc(S(=O)(=O)NCCC(=O)Nc3ccc(F)c(Cl)c3)ccc21`, the “activity change, negative = cytotoxicity” value is inactive: -0.619%.

Regarding `Cc1cccc(C2N3CC4(C(C)C)CN2CC(C(C)C)(C3)C4=O)c1` (stereo not drawn), the “activity change, negative = cytotoxicity” value was inactive: 11.5%.

The record behind these values is PubChem BioAssay AID1508642 (National Center for Advancing Translational Sciences (NCATS), 2021).
